Experimental data taken from the supplement of paper PMC4967469.
By IC50 is meant the dose at which the fit gives 50% viability; fits outside the tested doses are given as limits. AUC sums up the same curve from the lowest dose to the 256-fold higher top dose: 1 means no effect, lower means more sensitive. For part of these data: An inferred top dose was derived from the fitted curves, not read from the paper. For part of these data: Where an entry number is given, a second screen of the drug exists; the two often differ.

Key:
Test in all cases: Viability of human cancer cell lines after 72 h of drug (GDSC screen)
CHIR-99021 = compound: Cc1cnc(-c2cnc(NCCNc3ccc(C#N)cn3)nc2-c2ccc(Cl)cc2Cl)[nH]1 [CHIR-99021]
Method: (§1)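 Human cancer cell lines in 384-well plates, medium with 10% serum, drug for 72 h over a 256-fold dose range (nine 2-fold or five 4-fold steps up to the top dose). Adherent lines were fixed and stained with the nucleic acid dye Syto60, suspension lines read with resazurin; signal relative to control wells, capped at 0 and 100%. One two-parameter sigmoid per drug and line, fitted in a mixed model over all curves with the slope shared within a line.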

ABT-888 = compound: C[C@]1(c2nc3c(C(N)=O)cccc3[nH]2)CCCN1 [ABT-888]; conditions: top dose 5 µM; top dose inferred
Method: as §1

MPS-1-IN-1 = compound: COc1cc(N2CCC(O)CC2)ccc1Nc1cc(Nc2ccccc2S(=O)(=O)C(C)C)c2cc[nH]c2n1 [MPS-1-IN-1]; conditions: top dose 20 µM; top dose inferred
Method: as §1

GSK269962A = compound: CCn1c(-c2nonc2N)nc2cnc(Oc3cccc(NC(=O)c4ccc(OCCN5CCOCC5)cc4)c3)cc21 [GSK269962A]; conditions: top dose inferred
Method: as §1

KU-55933 = compound: O=c1cc(-c2cccc3c2Sc2ccccc2S3)oc(N2CCOCC2)c1 [KU-55933]; conditions: top dose 10 µM
Method: as §1

CP466722 = compound: COc1cc2ncnc(-n3nc(-c4ccccn4)nc3N)c2cc1OC [CP466722]; conditions: top dose 16 µM; top dose inferred
Method: as §1

(5Z)-7-Oxozeaenol = compound: COc1cc(O)c2c(c1)/C=C/C[C@H](O)[C@H](O)C(=O)/C=C\C[C@H](C)OC2=O [(5Z)-7-Oxozeaenol]; conditions: top dose 10 µM; top dose inferred
Method: as §1

Cytarabine = compound: Nc1ccn([C@@H]2O[C@H](CO)[C@@H](O)[C@@H]2O)c(=O)n1 [Cytarabine]; conditions: top dose 2 µM
Method: as §1

QL-X-138 = compound: C=CC(=O)Nc1cc(-n2c(=O)ccc3cnc4ccc(-c5cn[nH]c5)cc4c32)ccc1C [QL-X-138]; conditions: top dose 10.24 µM; top dose inferred
Method: as §1

Zibotentan = compound: COc1nc(C)cnc1NS(=O)(=O)c1cccnc1-c1ccc(-c2nnco2)cc1 [Zibotentan]; conditions: top dose 20 µM; top dose inferred
Method: as §1

ABT-869 = compound: Cc1ccc(F)c(NC(=O)Nc2ccc(-c3cccc4[nH]nc(N)c34)cc2)c1 [ABT-869]; conditions: top dose 1.024 µM; top dose inferred
Method: as §1

Thapsigargin = compound: C/C=C(/C)C(=O)O[C@H]1C(C)=C2[C@H]([C@@H]1OC(=O)CCCCCCC)[C@@](C)(OC(C)=O)C[C@H](OC(=O)CCC)[C@@]1(O)[C@H]2OC(=O)[C@@]1(C)O [Thapsigargin]; conditions: top dose 0.512 µM; top dose inferred
Method: as §1

[1] = top dose 2.56 µM, screen: GDSC drug entry 154
[2] = top dose 10 µM, screen: GDSC drug entry 1241, top dose inferred
[3] = top dose 2.5 µM, screen: GDSC drug entry 127
[4] = top dose 5 µM, screen: GDSC drug entry 1192

Cell Line | AUC (CHIR-99021; [1]) | IC50 (CHIR-99021; [1]) [µM] | AUC (CHIR-99021; [2]) | IC50 (CHIR-99021; [2]) [µM] | AUC (ABT-888) | IC50 (ABT-888) [µM] | AUC (MPS-1-IN-1) | IC50 (MPS-1-IN-1) [µM] | AUC (GSK269962A; [3]) | IC50 (GSK269962A; [3]) [µM] | AUC (GSK269962A; [4]) | IC50 (GSK269962A; [4]) [µM] | AUC (KU-55933) | IC50 (KU-55933) [µM] | AUC (CP466722) | IC50 (CP466722) [µM] | AUC ((5Z)-7-Oxozeaenol) | IC50 ((5Z)-7-Oxozeaenol) [µM] | AUC (Cytarabine) | IC50 (Cytarabine) [µM] | AUC (QL-X-138) | IC50 (QL-X-138) [µM] | AUC (Zibotentan) | IC50 (Zibotentan) [µM] | AUC (ABT-869) | IC50 (ABT-869) [µM] | AUC (Thapsigargin) | IC50 (Thapsigargin) [µM]
D-542MG (glioma, adherent) | 0.96 | > 2.56 | 0.891 | > 10 | 0.984 | > 5 | 0.904 | > 20 | 0.885 | > 2.5 | 0.91 | > 5 | 0.984 | > 10 | 0.957 | > 16 | 0.772 | 4.72 | 0.857 | > 2 | 0.916 | > 10.2 | 0.984 | > 20 | 0.982 | > 1.02 | 0.343 | 0.0106
DAN-G (pancreas, adherent) | 0.992 | > 2.56 | 0.979 | > 10 | 0.991 | > 5 | 0.934 | > 20 | – | – | 0.953 | > 5 | 0.989 | > 10 | 0.91 | > 16 | 0.83 | 5.24 | 0.901 | > 2 | 0.891 | 9.31 | 0.991 | > 20 | 0.991 | > 1.02 | 0.941 | > 0.512
DBTRG-05MG (glioma, adherent) | 0.911 | > 2.56 | 0.918 | > 10 | 0.94 | > 5 | 0.859 | > 20 | – | – | 0.909 | > 5 | 0.984 | > 10 | 0.965 | > 16 | 0.434 | 0.4 | 0.848 | 1.89 | 0.787 | 5.28 | 0.982 | > 20 | 0.98 | > 1.02 | 0.322 | 0.00926
DK-MG (glioma, adherent) | 0.967 | > 2.56 | 0.923 | > 10 | 0.978 | > 5 | 0.87 | > 20 | – | – | 0.87 | > 5 | 0.949 | > 10 | 0.525 | 1.21 | 0.566 | 1.03 | 0.897 | > 2 | 0.509 | 0.684 | 0.975 | > 20 | 0.8 | 0.812 | 0.499 | 0.0319
DMS-273 (small cell lung carcinoma, adherent) | 0.917 | > 2.56 | 0.983 | > 10 | 0.985 | > 5 | 0.829 | 13.5 | – | – | 0.955 | > 5 | 0.927 | > 10 | 0.852 | 13.5 | 0.474 | 0.527 | 0.832 | 1.38 | 0.479 | 0.559 | 0.974 | > 20 | 0.981 | > 1.02 | 0.1 | < 0.002
DOK (head and neck, adherent) | 0.96 | > 2.56 | 0.958 | > 10 | 0.957 | > 5 | 0.933 | > 20 | – | – | 0.784 | 3.38 | 0.895 | > 10 | 0.82 | > 16 | 0.533 | 0.805 | 0.86 | > 2 | 0.895 | > 10.2 | 0.976 | > 20 | 0.972 | > 1.02 | 0.883 | > 0.512
Detroit562 (head and neck, adherent) | 0.988 | > 2.56 | 0.944 | > 10 | 0.988 | > 5 | 0.975 | > 20 | – | – | 0.798 | 2.28 | 0.979 | > 10 | 0.94 | > 16 | 0.772 | 3.71 | 0.852 | 1.46 | 0.935 | > 10.2 | 0.986 | > 20 | 0.981 | > 1.02 | 0.275 | 0.00759
DoTc2-4510 (cervix, adherent) | 0.966 | > 2.56 | 0.959 | > 10 | 0.988 | > 5 | 0.959 | > 20 | – | – | 0.977 | > 5 | 0.913 | > 10 | 0.922 | > 16 | 0.406 | 0.351 | 0.885 | 1.99 | 0.854 | 7.41 | 0.989 | > 20 | 0.983 | > 1.02 | 0.361 | 0.0135
EFM-192A (breast, adherent) | 0.908 | > 2.56 | 0.939 | > 10 | 0.976 | > 5 | 0.97 | > 20 | – | – | 0.907 | > 5 | 0.963 | > 10 | 0.825 | 11 | 0.781 | 4.62 | 0.975 | > 2 | 0.985 | > 10.2 | 0.972 | > 20 | 0.982 | > 1.02 | 0.172 | 0.00281
EFO-27 (ovary, adherent) | 0.977 | > 2.56 | 0.868 | > 10 | 0.972 | > 5 | 0.849 | > 20 | – | – | 0.434 | 0.197 | 0.956 | > 10 | 0.825 | 13 | 0.673 | 2.15 | 0.832 | 1.75 | 0.734 | 3.59 | 0.971 | > 20 | 0.973 | > 1.02 | 0.467 | –
